Measurements published in PubChem BioAssay AID624417 (National Center for Advancing Translational Sciences (NCATS), 2012).
Hit rate of the full screen: of about 410,000 compounds, about 6,400 (1.6%) were called active. Inconclusive results, whose numbers are uncertain, are shown with a selection of clear calls. Calls follow the shape of the dose curve; as a rule, active = well fitted inhibition curve with a large enough effect; inconclusive = small, poorly fitted or top-dose-only effect; inactive = no such curve, though single readings can be large or run the other way. A potency beside an inconclusive call is a rough fit, not a confirmed value.

These molecules were tested against Glucagon-like peptide 1 receptor (Homo sapiens) (UniProt P43220) (assay: qHTS of GLP-1 Receptor Inverse Agonists (Inhibition Mode)). Conditions: HEK293 GLP-1R CRE-luciferase, luminescence, 24 h, GLP-1R form is constitutively active; activity change, negative = inhibition: at 38.3 µM (top of the series) unless noted.
How it was run: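 Inverse agonism was detected as reduced cAMP-driven luciferase luminescence after 24 h compound treatment. The cells were HEK293 clones expressing constitutively active human GLP-1R with the reporter. Reporter-only and GPR119 cell lines served as counterscreen controls.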
% is scaled to controls: 0 for no effect and ±100 for the full control effect; potency is read from the fitted curve at half-maximal effect; tags tell the direction and shape of the fitted curve.
Also: nearly all actives have a fitted effect of over 55% in size.

UniProt P43220, sequence (P43220 whole entry, looked up): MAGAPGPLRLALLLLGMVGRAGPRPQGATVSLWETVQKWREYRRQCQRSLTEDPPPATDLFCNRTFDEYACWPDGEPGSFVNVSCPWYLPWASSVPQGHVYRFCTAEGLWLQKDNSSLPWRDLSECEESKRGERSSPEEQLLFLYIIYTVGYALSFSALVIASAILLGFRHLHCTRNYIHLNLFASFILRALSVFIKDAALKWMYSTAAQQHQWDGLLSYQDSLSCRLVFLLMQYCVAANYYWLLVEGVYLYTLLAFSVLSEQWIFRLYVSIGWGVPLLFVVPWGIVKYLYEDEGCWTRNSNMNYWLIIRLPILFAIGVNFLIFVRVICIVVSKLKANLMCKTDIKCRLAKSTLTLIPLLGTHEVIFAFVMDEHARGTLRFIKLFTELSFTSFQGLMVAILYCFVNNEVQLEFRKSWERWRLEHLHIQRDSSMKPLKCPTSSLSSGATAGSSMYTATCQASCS

Potency, active:
CCOc1ccc(NS(=O)(=O)c2cccc(C(=O)NCC3(N(C)C)CCCCC3)c2)cc1 10 µM
Cn1c(=S)c2[nH]c(SCCN3CCCC3)nc2n(C)c1=O 5.62 µM
O=C(Nc1ccc(Cl)cc1)/C(=C/c1cccc(O)c1)c1nc2ccccc2s1 2.82 µM

Potency, inconclusive:
S=C(Nc1ccccc1)c1nc2ccccc2s1 3.98 µM [inhibitor, full curve, poor fit]
COc1cc(C(=O)NN=Cc2ccc(N(C)C)cc2)cc(OC)c1OC 0.794 µM [inhibitor, full curve, poor fit]
O=C(COC(=O)c1ccccc1C(=O)N1CCN(c2ccccc2)CC1)Nc1ccccc1 28.2 µM [inhibitor, single point]
CC(C)(C)c1csc(Sc2ccc([N+](=O)[O-])cn2)n1 10 µM [inhibitor, partial curve, poor fit]
CCn1cc2nc(SCC(=O)Nc3ccccc3F)n(Cc3ccc(C)cc3)c(=O)c2n1 11.2 µM [inhibitor, partial curve, poor fit]
N#C/C(=N\Nc1ccc([N+](=O)[O-])cc1)C(N)=S 8.91 µM [inhibitor, partial curve, poor fit]
Cc1ccc(OCC(=O)N(Cc2ccco2)Cc2ccco2)cc1C 11.2 µM [inhibitor, single point]
CC1CCC2(CC1)NC(=O)N(CC(=O)Nc1cccc(S(=O)(=O)N3CCCCC3)c1)C2=O (stereo not given) 22.4 µM [inhibitor, partial curve, poor fit]
COc1ccc(/C=N/Nc2nc3ccccc3s2)cc1O 28.2 µM [inhibitor, single point]
O=C(Nc1ccc(OC(F)(F)F)cc1)c1cccc(-n2cnnn2)c1 8.91 µM [inhibitor, single point]
O=C(Nc1ccccc1N1CCCCC1)c1ncoc1-c1ccc(F)cc1 3.16 µM [inhibitor, full curve, poor fit]
Cc1ccc(NC(=O)C(c2ccc(Cl)cc2)N2CCOCC2)cc1 (stereo not given) 11.2 µM [inhibitor, single point]
CCc1c(O)nc(SCC(=O)Nc2nc3ccccc3s2)n(-c2ccc(C)cc2)c1=O 11.2 µM [inhibitor, single point]
COC(=O)C(Cc1ccccc1)NC(=O)CCc1c[nH]c2ccccc12 (stereo not given) 11.2 µM [inhibitor, partial curve, poor fit]
COc1ccc(C2C(C(=O)Nc3ccccc3OC)=C(C)Nc3c(C(=O)Nc4ccccc4)cnn32)c(OC)c1 (stereo not given) 15.8 µM [inhibitor, partial curve, poor fit]
COc1ccc(-c2nnc3n(CCc4ccccc4)c(=O)c4ccccc4n23)cc1OC 8.91 µM [inhibitor, partial curve, poor fit]
CSc1ccc(C2c3c(oc4cc(C)cc(C)c4c3=O)C(=O)N2CCO)cc1 (stereo not given) 12.6 µM [inhibitor, single point]
CCn1c(=O)c(C(=O)NCc2ccc(F)cc2)c(O)c2ccccc21 7.08 µM [inhibitor, partial curve, poor fit]
Cc1cc(C)n(-c2nnc(NC34CC5CC(CC(C5)C3)C4)nn2)n1 28.2 µM [inhibitor, single point]
Clc1ccc(OCCCc2nc(-c3ccncc3)no2)c(Cl)c1 12.6 µM [inhibitor, single point]
CCCCC[C@H](C)N1C[C@@H](COCc2ccccc2)Oc2cc(N3CC[C@H](N(C)C)C3)ccc2S1(=O)=O 10 µM [inhibitor, single point]
CNC(=S)N1CCN(c2nc(-c3ccc(Cl)cc3)cs2)CC1 28.2 µM [inhibitor, single point]
Cc1ccc(CN(C(=O)COc2ccc(Cl)cc2C)C2CCS(=O)(=O)C2)o1 (stereo not given) 31.6 µM [inhibitor, single point]
Cc1ccc(NC(=O)c2cc3c(=O)n(Cc4ccco4)ccc3nc2C)cc1C 11.2 µM [inhibitor, single point]
CC[C@@H](C)[C@@H](C(=O)Nc1ccc(C)cc1)N1Cc2ccccc2C1=O 11.2 µM [inhibitor, single point]
OC1CN=C2CCCc3c2n(c2ccc(Cl)cc32)C1 (stereo not given) 28.2 µM [inhibitor, single point]
CCCCC[C@H](C)N1C[C@H](COCc2ccccc2)Oc2cc(N3CC[C@@H](N(C)C)C3)ccc2S1(=O)=O 10 µM [inhibitor, partial curve, poor fit]
CCN1CCCC1CNC(=O)c1csc2c1CCCC2 (stereo not given) 6.31 µM [inhibitor, partial curve]
CCCCNC(=O)c1onc(CSc2cccc(OCC)c2)c1C(=O)O 12.6 µM [inhibitor, single point]
CC1=C(C(=O)OC2CCCCC2)C(c2ccccc2Br)NC(=O)N1 (stereo not given) 28.2 µM [inhibitor, single point]
CC(Sc1ccccc1)C(=O)N1CCN(S(=O)(=O)c2cccc(Br)c2)CC1 (stereo not given) 28.2 µM [inhibitor, single point]
CCOC(=O)c1c(N)sc2c(OC)c(Br)ccc12 28.2 µM [inhibitor, single point]

Activity change, negative = inhibition, inactive:
CCOc1cc(NC(=S)NCC(C)C)c(OCC)cc1NC(=O)c1ccco1 -12.4%
O=C(COC(=O)c1ccccn1)NCc1cccc(Cl)c1 -11.6%
Cc1noc(C)c1COc1ccc(C(=O)Nc2ccccn2)cc1 18.2%
CC(C)CCNC(=O)CCn1c(=O)c2cccn2c2cccnc21 5.73%
Cc1cc(NCCCN2CCOCC2)n2ncc(-c3ccc(Cl)cc3)c2n1 -21.1%
